Laboratory results published in PubChem BioAssay AID1508624 (National Center for Advancing Translational Sciences (NCATS), 2021).
The campaign covered roughly 48,000 compounds. About 120 (0.25%) were called active. About 4% were inconclusive and are not listed. The call rests on the fitted dose curve; in most records, active means well fitted activation curve with a large enough effect; inconclusive means small, poorly fitted or top-dose-only effect, or another doubt; inactive means no such curve, though single readings can be large or run the other way. The list shows a part of the results.

Assay: Primary qHTS for Identification of Small Molecule Activators of Huntingtin-Antisense Promoter Activity; further: nearly all actives have a fitted effect of over 55% in size
Settings: HEK293 HTT-AS promoter firefly luciferase reporter, 24 h; series mostly up to 57.5 µM; activity change, positive = activation: at the top concentration
Outline: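 HEK293 luciferase promoter-reporter cells (2,500/well) plated 24 h, then compounds added at up to 57.5 uM final for 24 h at 37 °C. Firefly luminescence by Dual-Glo, normalized to vehicle (0%) and zero RLU (-100%).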

Activity change, positive = activation, inactive:
COc1ccc2cc(CNc3ccc(C)cc3)c(=O)n(CC(=O)Nc3ccc(OC)c(Cl)c3)c2c1 -9.58%
O=C(CCCn1c(=O)c2sccc2n(Cc2ccc(F)cc2Cl)c1=O)NCc1ccc2c(c1)OCO2 -24.2%
COCCn1c(C)cc(O)c(C(c2ccccc2OC)N2CCCCC2)c1=O (centres undefined) -15%
COc1ccc(C(CC(=O)Nc2ccc(OC)c(OC)c2)N2Cc3ccccc3C2=O)cc1 (centres undefined) -18.8%
O=C(Nc1cccc(C2=NCCN2)c1)Nc1cccc(C2=NCCN2)c1 -18.8% [at 25.1 µM, percent change from vehicle, -100% = no light]
Cc1ccc(C)c(N2CCN(C(=O)c3cccn3-c3nnc(N4CCCCC4)s3)CC2)c1 -24.4%
COc1cccc(CNC(=O)c2cc3c(=O)n(C)c4ccccc4c3n2C)c1 -2.07%
CCc1nc2ccc(C(=O)NCCc3ccc(OC)c(OC)c3)cc2nc1CC 10.3%
CCOc1ccccc1CNC(=O)c1[nH]c2ccccc2c1Sc1ccccc1 -12.1%
CCn1ccc2cc(S(=O)(=O)N3CCC(C(=O)NCCOC)CC3)ccc21 -11.2%
O=S(=O)(c1ccc(-c2cc(C(F)(F)F)on2)s1)N1CCN(c2cccc(Cl)c2)CC1 -12.5%
CCN1CCN(CCCNC(=O)c2cc3c(s2)-c2c(C)cccc2OC3)CC1 -13.4%
CCCOC(=O)c1ccc(N)cc1 21.6%
Cc1nn2c(C(F)(F)F)cc(-c3ccc(OC(C)C)cc3)nc2c1C#N 11.8%
Cc1ccccc1OCC(=O)Nc1ccccc1C(=O)OCc1cc(=O)n2c(C)csc2n1 -46.5%
Cc1ccc2c(c1)c1c(n2CCc2ccc(C)nc2)CCN(C)C1 -16.6%
Cc1ccc(Nc2cc(C(=O)NC3CCCC3)c3ccccc3n2)c(C)c1 -7.69%
COc1ccc(NC(=O)CSC2=Nc3ccccc3C3=NC(Cc4ccccc4)C(=O)N23)cc1Cl (centres undefined) -15.2%
CN(Cc1ccccc1)C(=O)Cn1ncc2c3ccccc3n(Cc3cccc(Cl)c3)c2c1=O -20.4%
Cc1ccc(Cl)cc1Nc1sc(C(=O)c2ccccc2)c(N)c1S(=O)(=O)c1ccccc1 -6.98%
CCc1cnc2c(c1SCC(=O)NCc1ccccc1)c(=O)n(C)c(=O)n2C -2.54%
CC(C)(C)c1ccc(C(=O)N2CC(=O)Nc3ccc(F)cc3C2c2ccc(F)cc2)cc1 (centres undefined) -31.8%
Cc1cc(C)c2oc(-c3cccc(NC(=O)c4cc5ccccc5o4)c3)nc2c1 6.89% [at 11.5 µM, percent change from vehicle, -100% = no light]
COc1cc(C2c3c(oc4ccccc4c3=O)C(=O)N2Cc2ccccc2Cl)ccc1O (centres undefined) -10.3%
COc1cc(CCC(=O)NCc2ccc3c(c2)CCN3C(=O)c2cccc(C)c2)cc(OC)c1OC -8.34%
CC(=O)OCC(=O)[C@@]1(O)CC[C@H]2[C@@H]3CCC4=CC(=O)C=C[C@]4(C)[C@H]3[C@@H](O)C[C@@]21C -8.28%
Cc1ccc2nc(SCc3nc(-c4ccccc4C)no3)[nH]c2c1 -34.3%
Cc1ccc2c(CC(=O)Nc3c(C(=O)Nc4cccc(Cl)c4)oc4ccccc34)coc2c1C 31%
Cc1ccccc1Cn1c(Oc2ccccc2F)nc2c1c(=O)n(C)c(=O)n2C 0.387%
Cc1ccc(NC(=O)Cn2c(=O)c(C(F)(F)F)nc3ccccc32)c(C)c1 4.81%
CCCCN(CC)CCNC(=O)Cn1c(=O)c2cccn2c2cccnc21 -17.1%
Cc1ccc(N2CCN(C(=O)C3CCC(CNS(=O)(=O)c4ccc(Br)s4)CC3)CC2C)cc1 (centres undefined) -35.8%
Cc1c(NC(=O)C(C)(C)C)cccc1-c1nc2ccccc2s1 17.8%
Cc1ccc(-n2nc(C(=O)N3CCN(c4cc(C)ccc4C)CC3)c3c4ccccc4n(C)c3c2=O)cc1 6.85%
CCOc1ccccc1NC(=O)Cn1c(=O)n(-c2ccc(Cl)cc2)c(=O)c2oc3ccccc3c21 1.42%
Cn1cc(S(=O)(=O)N2CCc3ccccc32)cc1C(=O)Nc1ccc(C(F)(F)F)cc1 -39.7%
CCN(CC)c1ccc(NC(=O)Cn2cc3c(n2)CCCC3)c(C)c1 -13.5%
Cn1c(=O)n(C)c2cc(N3CCCCC3)c(NC(=O)Nc3ccc(Br)cc3)cc21 -17%
CCc1ccc(NC(=O)CSc2nc3c([nH]c4ccccc43)c(=O)n2C)cc1 -14%
Cc1ccc(-n2c(=O)c3ccc(C(=O)NCc4ccccc4Cl)cc3n(Cc3cccc(F)c3)c2=O)cc1 -12.8%
Cc1ccc(CNC(=O)C2CCCN(c3nn4cc(-c5ccc(C)cc5)nc4s3)C2)cc1 (centres undefined) -10.9%
COc1ccc(N2CCN(C(CNC(=O)c3c(F)cccc3F)c3ccc4c(c3)OCO4)CC2)cc1 (centres undefined) -0.806%
CCOC(=O)c1cc2c(=O)n3ccccc3nc2n(CC2CCCO2)c1=NC(=O)c1ccccc1OCC (centres undefined) -31.2%
CC(C)n1c(SCC(=O)c2ccc(F)cc2)nc2c(sc3ccccc32)c1=O -8.65%
COc1ccccc1OCCCn1c(C2CC(=O)N(c3ccc(F)cc3)C2)nc2ccccc21 (centres undefined) -11.6%
COc1ccc(CCNC(=O)c2c(Nc3ccccc3C)sc(C(=O)c3ccccc3)c2N)cc1OC -25.6%
Cc1cccc2nc(Cn3c(=O)n(-c4ccccc4)c(=O)c4c5c(sc43)CCC5)cc(=O)n12 1.82%
CCOc1ccccc1NC(=O)CSc1nnc(CC)c(CC)n1 -6.89%
CCCCC(CC)CNC(=O)c1ccc(Cn2c(=O)[nH]c3cc(OC)c(OC)cc3c2=O)cc1 (centres undefined) -10.9%
CCN1c2ccccc2-c2nc(SCC(=O)Nc3cc(OC)cc(OC)c3)ncc2S1(=O)=O -2.06%
COc1ccc(-c2nn(C)c3sc(C(=O)Nc4cc(OC)c(OC)c(OC)c4)cc23)cc1OC -36.3%
CCCN(C(=O)c1c(C)oc2ncn(CC(C)C)c(=O)c12)c1ccccc1C -11.5%
CCCOc1ccc(C(=O)Nc2cc(-c3nc4ccccc4[nH]3)ccc2C)cc1 3.7%
COc1cccc(CN2CCCN(Cc3ccc(F)cc3)S2(=O)=O)c1 -14.5%
Cc1ccc(O)c(NC(=O)C2=CC(c3cccs3)=NS(=O)(=O)N2C)c1 -28.9%
Cc1ccccc1OCC(=O)Nc1nnc(SCc2cc(=O)n3cccc(C)c3n2)s1 -3.22%
COc1cccc(CNC(=O)c2cc3cc(C)ccc3n2C)c1 -24.5%
Cc1ccccc1OCc1nnc(SCc2cc(=O)c3cc(F)ccc3[nH]2)n1C -40.6%
N#C/C(=C\c1cccc(F)c1)c1nc(-c2cc3ccccc3oc2=O)cs1 6.9%
